# In all, about 310,000 compounds went through this assay and about 14,000 (4.5%) showed an effect of 50% or more. The effect is printed as a negative number. The list shows a part of the results.
# Molecular target: human ether-à-go-go-related gene (hERG) potassium channel (human, UniProt Q12809)
# Experiment: primary screen, population patch clamp on CHO cells stably expressing hERG
# 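Also: peak tail current of the secondary pulse compared with the same well before compound.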
# Sequence of human ether-à-go-go-related gene (hERG) potassium channel (Q12809 whole entry, looked up): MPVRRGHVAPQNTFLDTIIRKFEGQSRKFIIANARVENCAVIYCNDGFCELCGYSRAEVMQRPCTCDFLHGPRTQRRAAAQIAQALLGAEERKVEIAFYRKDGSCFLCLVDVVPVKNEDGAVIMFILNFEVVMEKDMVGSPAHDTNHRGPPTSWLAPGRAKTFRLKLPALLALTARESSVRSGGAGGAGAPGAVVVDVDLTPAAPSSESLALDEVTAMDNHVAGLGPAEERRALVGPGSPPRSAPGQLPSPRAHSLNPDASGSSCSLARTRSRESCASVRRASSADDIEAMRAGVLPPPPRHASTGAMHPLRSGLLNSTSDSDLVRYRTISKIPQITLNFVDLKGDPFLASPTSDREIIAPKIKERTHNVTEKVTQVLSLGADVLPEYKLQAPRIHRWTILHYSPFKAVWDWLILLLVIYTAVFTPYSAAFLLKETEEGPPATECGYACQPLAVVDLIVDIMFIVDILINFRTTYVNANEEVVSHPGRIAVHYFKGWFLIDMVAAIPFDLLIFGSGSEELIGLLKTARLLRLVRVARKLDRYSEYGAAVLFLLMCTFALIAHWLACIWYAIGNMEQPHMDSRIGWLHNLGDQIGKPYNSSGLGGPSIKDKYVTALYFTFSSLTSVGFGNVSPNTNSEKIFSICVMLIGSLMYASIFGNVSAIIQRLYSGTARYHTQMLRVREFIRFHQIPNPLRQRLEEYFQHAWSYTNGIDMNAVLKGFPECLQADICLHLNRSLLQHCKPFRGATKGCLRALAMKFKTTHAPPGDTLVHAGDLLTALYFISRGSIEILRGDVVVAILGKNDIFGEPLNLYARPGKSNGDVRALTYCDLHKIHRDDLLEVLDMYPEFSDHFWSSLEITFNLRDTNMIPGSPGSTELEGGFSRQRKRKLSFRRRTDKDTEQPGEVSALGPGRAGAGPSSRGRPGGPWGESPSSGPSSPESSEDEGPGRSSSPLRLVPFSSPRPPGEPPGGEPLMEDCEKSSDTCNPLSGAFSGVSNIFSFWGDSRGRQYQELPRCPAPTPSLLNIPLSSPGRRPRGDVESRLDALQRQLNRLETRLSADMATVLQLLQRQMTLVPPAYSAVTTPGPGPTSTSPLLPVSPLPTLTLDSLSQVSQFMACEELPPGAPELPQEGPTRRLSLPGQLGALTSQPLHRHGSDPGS
row,Compound,"hERG current change (%, negative = inhibition) at 10uM [%]"
1,Cc1[nH]c2ccccc2c1C(=O)COC(=O)c1nccnc1N,-9.83
2,COC(=O)c1ccc(Cl)c(NC(=O)CN2CCC(C)CC2)c1,-21.5
3,CCOc1ccc(NC(=O)c2ccc3c(c2)CCN3S(C)(=O)=O)cc1,6.24
4,Cc1ccc(NC(=O)COC(=O)c2cc(-c3cccs3)nn2-c2ccccc2)cc1[N+](=O)[O-],-4.24
5,CC(NC(=O)Cn1cnnn1)C12CC3CC(CC(C3)C1)C2 (stereo not drawn),7.75
6,Cc1[nH]nc(N=CC2=C(O)CC(c3ccco3)CC2=O)c1-c1ccc(Cl)cc1 (stereo not drawn),-4.37
7,O=C(Nc1ccccc1C(F)(F)F)N1CCCC(O)C1 (stereo not drawn),11.2
8,CCN(CC)S(=O)(=O)c1cc(NC(=O)C(C)N2CCc3ccccc32)ccc1C (stereo not drawn),10.8
9,COc1ccc(-c2nnc(SCC(=O)N/N=C/c3ccccc3C(=O)O)n2-c2ccc(Cl)cc2)cc1,4.64
10,CCOC(=O)c1c(NC(=S)NCCc2ccccc2)sc2c1CC(C(C)C)OC2 (stereo not drawn),11.3
11,COc1ccc(-c2ccc3oc(-c4ccc(OC)cc4)c(-c4ccc(OC)cc4)c3c2)cc1,18.7
12,Cc1ccc(Cn2nc(C)c(NC(=O)c3nn(C)cc3Cl)c2C)cc1,-0.48
13,COc1cccc(CC2(CO)CCCN(CC3=Cc4cc(OC)ccc4OC3)C2)c1 (stereo not drawn),-21.5
14,CN(C)CC1CCCCC1OC(=O)c1ccc(Br)cc1.Cl (stereo not drawn),-7.82
15,COC(=O)c1ccc2c(CCO)c[nH]c2c1,8.14
16,O=c1cc(COc2ccccc2[N+](=O)[O-])nc2sccn12,4.69
17,COC(=O)CNC(=O)COC(=O)Cc1ccc(Cl)cc1,18.1
18,COc1ccc(N(C(=O)c2ccco2)C(C(=O)NC2CCCC2)c2cc(OC)c(OC)c(OC)c2)cc1 (stereo not drawn),14.1
19,CC(C)C(NC(=O)c1ccc(C(C)(C)C)cc1)C(=O)O (stereo not drawn),2.22
20,Cc1c(C(=O)Nc2ccccc2)oc2c1C(=O)CC(C)(C)C2,-18
21,O=C(O)CNS(=O)(=O)c1ccc(C2CCCCC2)cc1,10.8
22,O=C1NN(c2ccc(Cl)c(Cl)c2)C(=O)/C1=C/c1cccc(OC(=O)c2cccs2)c1,27.2

row,Compound,"hERG current change (%, negative = inhibition) at 10uM [%]"
1,CC(C)(O)C#Cc1ccc(C(=O)Nc2ccc3c(c2)OCO3)s1,22.7
2,CCOC(=O)CSc1nnc(N)s1,15.6
3,Cc1nnc(SC(C)C(=O)Nc2ccc(S(=O)(=O)N3CCCCC3)cc2)s1 (stereo not drawn),-18.4
4,C/C(CC(=O)N1CCN(C=O)CC1)=N\NC(=O)c1cc2ccccc2cc1O,3.75
5,Cc1ccc(NC(=O)C(C)Sc2nc3nc(C)cc(C)n3n2)cc1 (stereo not drawn),-41.4
6,Cc1ccc(NC(=O)/C=C/C(=O)O)c(NC(=O)c2ccccc2)c1,6.45
7,COC(=O)c1ccc(OC(=O)CCN2c3ccccc3Sc3ccccc32)cc1,8.91
8,O=C(CSc1nc2ccccc2c(=O)n1-c1ccccc1)NC(=O)CN1CCCC1=O,12.2
9,COCCCN(C(=O)c1cccnc1SC)c1c(N)n(Cc2ccccc2)c(=O)[nH]c1=O,8.98
10,COc1cccc(C=O)c1OC(=O)N1CCOCC1,20.4
11,CCN(CC)c1ccc(NC(=O)c2cccc(C)c2OC)c(C)c1,2.07
12,Cc1ccc2[nH]c(=O)c(CN(Cc3ccco3)C(=O)CN3CCCC(C)C3)cc2c1 (stereo not drawn),-57
13,CCOC(=O)C1CCN(C(=O)CN(c2cc(Cl)ccc2OC)S(=O)(=O)c2ccccc2)CC1,-67
14,CCCCC1(c2ccc(F)cc2)NC(=O)N(CC(=O)N2CCN(C(=O)c3ccco3)CC2)C1=O (stereo not drawn),-52.6
15,Cn1c(=O)c2c(nc(Sc3ncnn3CC(=O)NC(C)(C)C)n2C)n(C)c1=O,31
16,COc1ccc(-c2cc3ccccc3n2CC(O)CNC(CO)(CO)CO)cc1 (stereo not drawn),10.8
17,O=C(c1ccco1)N1CCN(c2ccc(N3CCCCC3)nn2)CC1,-44.8
18,O=C1COc2ccc(C(=O)COC(=O)COc3ccccc3[N+](=O)[O-])cc2N1,-10.4
19,NC(=S)c1cn(C2OC(CO)C(O)C2O)c2ncnc(N)c12 (stereo not drawn),23.2
20,Nc1c(C(=O)NCCc2ccccc2)nnn1Cc1ccccc1,-5.66
21,COc1ccc(Nc2c([N+](=O)[O-])ccc3c2=NC2(CCCCC2)N=3)cc1,0.625
22,O=C(Cn1cnc2ccccc21)Nc1ccc(C(=O)O)cc1.O=C(O)C(=O)O,-71.4

row,Compound,"hERG current change (%, negative = inhibition) at 10uM [%]"
1,CCN=C1NN=C(c2ccc(C)cc2)CS1,18.2
2,COc1ccccc1Nc1c([N+](=O)[O-])cncc1[N+](=O)[O-],12.5
3,CCn1c(CNC(=O)COc2ccc(C(C)C)cc2)nnc1SCC(=O)Nc1ccc(F)cc1,-49.4
4,O=C(NCCCN1CCN(Cc2ccccc2)CC1)C1CCN(c2nnc(-n3cccc3)s2)CC1,-48.5
5,CC/C(CC(c1ccccc1)c1c(O)c2ccccc2oc1=O)=N\NC(N)=S (stereo not drawn),2.2
6,Nc1ccc2cn[nH]c2c1,18.7
7,CS(=O)(=O)c1ccc(Cl)c(NC(=O)Cc2ccccc2F)c1,24.4
8,O=[N+]([O-])c1ccc(NC(=S)N2CCN(S(=O)(=O)c3ccccc3)CC2)cc1,-24.6
9,Cc1ccc(C)c(N(CC(=O)NC2CCCC2)C(=O)c2cc3cc4cccc(C)c4nc3s2)c1,8.34
10,CCNC(=O)COC(=O)c1sccc1C,5.58
11,O=C(CSCc1ccc([N+](=O)[O-])cc1)Nc1ccc(S(=O)(=O)N2CCCCCC2)cc1,-20.2
12,CC(=O)Oc1c(S(=O)(=O)c2ccc(C)cc2)c(C)nn1-c1ccccc1,-4.21
13,O=c1c(N=Nc2ccc(O)cc2)c(-c2ccccc2)[nH]n1-c1ccc([N+](=O)[O-])cc1,11.1
14,CCC(=O)NC(=S)Nc1ccc(OC)cc1OC,9.23
15,Cc1ccc2cc3c(NC(=O)c4cccnc4)nn(C)c3nc2c1,13.8
16,Cc1ccc(CN2CCN(C(=O)C3CCC3)CC2)cc1,16.1
17,COc1ccc(OC)c(NC(=O)C2CCCN(S(=O)(=O)c3cccc4nonc34)C2)c1 (stereo not drawn),4.34
18,COc1ccccc1NC(=O)N1CCN(C(=O)c2ccco2)CC1,1.53
19,COC(=O)C1=C(C)N(c2ccc(F)cc2)/C(=C/c2ccc(O)cc2)C1=O,26.3
20,COc1ccccc1Nc1nc(N)nc(CCl)n1,3.4
21,COC(=O)C1CN(C(=O)COc2ccc(Cl)c(C)c2)c2ccccc2O1 (stereo not drawn),-1.55
22,COc1ccccc1-n1cnc2cc(C(=O)NC3CCCC3)ccc21,-65.5

row,Compound,"hERG current change (%, negative = inhibition) at 10uM [%]"
1,O=C1c2ccccc2C(=O)c2c1ncn2-c1ccccc1,-26.2
2,Nc1c2c(nc3ccccc13)CCCC2=O.O=C(O)CCC(=O)O,-26.4
3,O=C(COC(=O)c1cc(S(=O)(=O)N2CCCCC2)ccc1N1CCOCC1)c1ccccc1,-8.36
4,O=C(c1ccc(S(=O)(=O)N2CCCC2)cc1)N(c1ccccc1)C1C=CS(=O)(=O)C1 (stereo not drawn),-23
5,CCCN(Cc1cc2cccc(C)c2[nH]c1=O)C(=O)c1cccc(OC)c1,-23
6,O=C(C(=O)N1CCN(c2ccc(F)cc2)CC1)c1cn(CC(=O)N2CCOCC2)c2ccccc12,-0.953
7,COc1ccc(NC(=O)c2cccnc2N2CCCC2)cc1,0.363
8,Cc1cc(C)nc(N2CCCC(C(=O)NCc3ccccc3F)C2)n1 (stereo not drawn),7.81
9,COC(=O)Nc1ccc(S(=O)(=O)Nc2cccc3ccccc23)cc1,7.59
10,CC(NC(=O)COc1ccc(/C=N/NC(=O)CO)cc1)c1ccccc1 (stereo not drawn),-0.156
11,COc1ccc(C2C3=C(CC(C)(C)CC3=O)Nc3c2c(=O)[nH]c(=O)n3Cc2ccccc2)cc1OC (stereo not drawn),-3.11
12,O=C1c2ccccc2C(=O)N1/N=C/c1ccc(O)c(O)c1,9.42
13,CCOC(=O)c1ccc(N2CN=C3SCC(=O)N3C2)cc1,-9.19
14,Cc1ccc(NC(=O)OCc2cc(-c3ccccc3)on2)cc1,5.38
15,Cc1cc2cc(CCNC(=O)c3cccs3)c(=O)[nH]c2cc1C,-8.88
16,CC12CCC(C(=O)N3CCc4ccccc43)(CC1=O)C2(C)C (stereo not drawn),0.635
17,COc1ccc(NC(=O)Cc2c(F)cccc2Cl)cc1,28.2
18,CCC(=NCc1ccc(Cl)c(Cl)c1)c1nc(-c2ccco2)oc1O,25.7
19,Cc1cccc(-n2c(C)nc3cc(C(=O)NCc4ccc5c(c4)OCO5)ccc32)c1,-12.3
20,O=C(CC(=O)c1ccccc1[N+](=O)[O-])c1ccccc1,11.3
21,Cc1[nH]n(-c2ccccc2)c(=O)c1/C=N\NC(=O)C1COc2ccccc2O1 (stereo not drawn),2.21

# — paper PMC4336329 (PLoS ONE, 2015)
